In the supplement of paper PMC4466236:
The full ranking holds about 33,000 sequences; the median of “E-score (dimensionless, -0.5 to 0.5)” is about -0.058, and the highest 2% start at about 0.35. The list shows a part of the results.

Each sequence was assayed on MvaT (assay: PBM 8-mer E-score (mean of HK and ME arrays) (E-score (dimensionless, -0.5 to 0.5)); higher = stronger relative binding preference; most listed sequences are background and not binding sites).
Method in brief: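 Full-length P. aeruginosa MvaT, with glutathione S-transferase fused to its N-terminus (cloned into pTH6838 by isothermal assembly), was tested by protein binding microarray using a previously described protocol. Two universal double-stranded 60-mer arrays (ME and HK) were used, each with a constant 25-mer primer region and a variable 35-mer region covering all 8-mers. The rank-based 8-mer E-score (-0.5 to 0.5) is the mean of the two arrays, parsed with a custom Python script.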

Sequence	PBM 8-mer E-score
GGGAACCA	-0.227
CTGGTACA	-0.102
GGGGACTA	-0.199
ACCTGGAC	-0.271
AGTAAAGA	0.112
AATTTATC	0.276
CAAGACAA	0.0048
AAAACTAT	0.344
CTAGATAC	0.0488
AATCGGAG	-0.15
CTAGGTCC	-0.307
AGCCACCG	-0.196
TGCTCCCA	-0.228
GGGTGCCA	-0.248
AGGTAAAA	0.196
TTGTACAA	0.161
GCAGCTGA	-0.247
AATCTTTG	0.127
CTACAAAA	-0.0651
GAACACCC	-0.00413
GCGACAGA	-0.133
AAAAAGGA	0.0202

Sequence	PBM 8-mer E-score
TGTTAAAA	0.25
CCTGAAGC	-0.132
CGGTACCA	-0.127
CTTTACGA	-0.0864
ATATTAAA	0.466
CGAAGTAG	-0.0784
ACGCAGGC	-0.282
AAGTCCTG	-0.047
TAAGGTGA	-0.00551
ACGTTAGC	-0.113
ATGTACTG	0.0516
CAGTAAAC	0.112
CCTAGGCA	-0.26
ATTAATAC	0.41
ACAACGAC	0.184
GAGGCCTC	-0.305
CTCAGGTA	-0.12
ACGGCTCC	-0.0683
ATTGCGAC	0.169
CACTTCTC	-0.0902
GCGGTGGA	-0.12
AGGCGGAT	-0.131

Sequence	PBM 8-mer E-score
CCTTACTC	-0.188
CGAGTGCA	-0.0773
AGCTTATC	-0.0186
CGGCTGAG	-0.267
CTCCCGAG	-0.329
GCATGTAC	0.0279
CTCGTAAG	-0.0264
CATAGCAA	-0.0303
GGTGAGCA	-0.162
CCCATGGG	-0.275
GTATACTA	0.373
GCAGGTAC	-0.188
ACCATGGG	-0.258
GCCGCAAA	-0.0938
TATTAGAA	0.317
ACCCTAAA	-0.0353
AGGAAAAA	-0.0406
CGTAATGC	-0.00986
AATACCTA	0.259
TCAAGAAA	0.0128
AGAAGCAT	-0.106
ATTCGATA	0.144

Sequence	PBM 8-mer E-score
CAAGACGC	-0.233
GGAAAAAA	-0.0486
CACCAAGG	-0.274
GAGAAAAA	0.0692
TCCGGTAA	-0.166
ATGCTACC	-0.185
AAAGCGAT	0.101
CGCTACAG	-0.175
AAGAAAAC	0.0461
ATATCGAA	0.226
ATACGGAC	0.0892
ACGATCTC	-0.219
AAGGTTCT	-0.147
CTATGTCC	-0.0536
CCTGGTTC	-0.254
CCGTGAAC	-0.124
CGATTTTA	0.199
ACCCACAG	-0.218
CGCGAATA	0.117
CAGAAATC	-0.165
CAGACGTC	-0.172
ACACACCG	0.00166

Sequence	PBM 8-mer E-score
AGTCTCTG	0.0985
ATCAAGTC	-0.108
CAGCGGGA	-0.148
AGAAAATC	-0.0283
ACGATTTC	-0.0369
AGATCGAT	0.118
GATATATC	0.396
ACTGAGTA	-0.0103
CTGGAATA	0.151
GTCCACAC	-0.0464
AACTACGC	0.144
AAGACCAG	0.0132
GTAGCAAC	0.0241
CACGTTGG	-0.231
ACGGCGCG	-0.116
ACTCCATA	0.11
ATAGCCGC	0.04
CGTCGACC	-0.23
CACCGCAG	-0.151
CGTTTAGA	-0.0515
GAGCGCCA	-0.239
